About 290 (0.32%) of roughly 91,000 compounds were called active. Inconclusive results, whose numbers are uncertain, are shown with a selection of clear calls. Calls follow the shape of the dose curve; as a rule, active = well fitted inhibition curve with a large enough effect; inconclusive = small, poorly fitted or top-dose-only effect; inactive = no such curve, though single readings can be large or run the other way. Where the call is inconclusive, the potency comes from a doubtful curve fit.
Molecular target: Single-stranded DNA cytosine deaminase (Homo sapiens) (UniProt Q9GZX7)
Chain of UniProt Q9GZX7 (Q9GZX7 whole entry, looked up): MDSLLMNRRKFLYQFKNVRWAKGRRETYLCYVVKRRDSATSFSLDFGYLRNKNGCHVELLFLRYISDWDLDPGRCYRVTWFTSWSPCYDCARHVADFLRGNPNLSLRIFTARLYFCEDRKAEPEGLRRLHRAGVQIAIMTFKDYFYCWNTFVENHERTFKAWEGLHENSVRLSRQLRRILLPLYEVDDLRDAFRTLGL
Test: Primary qHTS assay for inhibitors of Activation Induced Cytidine Deaminase (AID): AID signal; also: nearly all actives have a fitted effect of over 25% in size
Conditions: AID deamination FRET fluorescence, UDG-coupled, 4 h; activity change, negative = inhibition: at 115 µM (top of the series)
% is scaled to controls: 0 for no effect and ±100 for the full control effect; potency is read from the fitted curve at half-maximal effect; tags tell the direction and shape of the fitted curve.

SMILES	activity change, negative = inhibition	Potency
Cc1ccc(/C=N/NC(=O)c2csc3ccccc23)s1	inactive: 1.59%	
COc1cc(OC)c(NC(=O)C(C)n2nc(-c3ccc(C)cc3)c3c(c2=O)CCCC3)cc1Cl (stereo not given)		inconclusive: 17.8 µM [inhibitor, full curve, poor fit]
Cc1c(Cl)cccc1NC(=O)Cn1nc(C)c2ccccc2c1=O	inactive: 2.09%	
CCn1cc(C(=O)NCc2ccccc2Cl)c(=O)c2cc(S(=O)(=O)N3CCCCCC3)ccc21		inconclusive: 31.6 µM [inhibitor, full curve, poor fit]
COc1ccc(CNc2nc(-c3ccco3)nn2C(=O)c2ccccc2C)cc1		inconclusive: 100 µM [inhibitor, single point]
Cc1ccccc1CNC(=O)c1ccc(Cn2c(SCc3ccccc3)nc3cccnc32)cc1		inconclusive: 11.2 µM [inhibitor, full curve, poor fit]
CC1CCCN(S(=O)(=O)c2cc(C(=O)NCCc3ccccc3)n(C)c2)C1 (stereo not given)		inconclusive: 56.2 µM [inhibitor, partial curve, poor fit]
COc1ccc(CNC(=O)c2ccc3c(c2)CCN3S(=O)(=O)c2ccccc2)cc1		inconclusive: 2.82 µM [inhibitor, full curve]
COc1ccccc1NC(=O)C1=C(C)Nc2nc(SCC(=O)c3ccc(C)cc3)nn2C1c1ccc(F)cc1 (stereo not given)		inconclusive: 89.1 µM [inhibitor, single point]
Cc1cccc(C)c1NC(=O)CN(C)S(=O)(=O)c1ccc2[nH]c3c(c2c1)CCCC3	inactive: 11.6%	
CC(C)COc1ccc(C(=O)N2CCC(c3nc4ccccc4s3)CC2)cc1		inconclusive: 39.8 µM [inhibitor, single point]
CCOc1ccc(C(=O)Nc2ccc3nc4c(c(Nc5ccccc5OC)c3c2)CCCC4)cc1	inactive: -3.06%	
O=C1Cc2cc(S(=O)(=O)N3CCCCC3)cc3c2N1CCC3		inconclusive: 35.5 µM [inhibitor, full curve, poor fit]
Cn1nc(CC(=O)OCC(=O)NC2CC2)c2ccccc2c1=O	inactive: 5.73%	
CCc1nc2ccc(C(=O)NCCc3ccc(OC)cc3OC)cc2nc1CC		inconclusive: 39.8 µM [inhibitor, partial curve, poor fit]
CCc1c(C)nc(Nc2nc(C)c3cccc(OC)c3n2)[nH]c1=O		inconclusive: 44.7 µM [inhibitor, partial curve, poor fit]
Cc1ccc(C(=O)c2cn(Cc3c(F)cccc3Cl)c3nc(C)ccc3c2=O)cc1	inactive: -27.6%	
S=C1NC(=S)/C(=C/C=C/c2ccco2)S1		inconclusive: 17.8 µM [inhibitor, partial curve, poor fit]
Cn1c(=O)n(C)c2cc(N3CCCC3)c(NC(=O)Nc3ccccc3)cc21		inconclusive: 89.1 µM [inhibitor, single point]
O=C(CSc1nnc2ccc(-c3cccs3)nn12)N1CCN(c2ccccc2)CC1		inconclusive: 50.1 µM [inhibitor, partial curve, poor fit]

SMILES	activity change, negative = inhibition	Potency
Cc1ccc(/C=N/NC(=O)CCc2ccccc2)cc1	inactive: -14.4%	
CCOC(=O)N1CCC(NC(=O)c2ccc3c(c2)N(Cc2ccc(Cl)cc2)C(=O)c2ccccc2S3=O)CC1 (stereo not given)		inconclusive: 20 µM [inhibitor, full curve, poor fit]
O=C(CSc1nc2ccccc2nc1Cc1ccccc1)N1CCCc2ccccc21		inconclusive: 39.8 µM [inhibitor, partial curve, poor fit]
CCOC(=O)c1c(Nc2cccc(C)c2)nnc(-c2ccccc2)c1-c1ccccc1		inconclusive: 79.4 µM [inhibitor, partial curve]
CC(C)c1ccc(/C=C(\C#N)c2nc(-c3ccc(O)cc3)cs2)cc1		inconclusive: 39.8 µM [inhibitor, single point]
COc1cc(CN2CCN(S(=O)(=O)c3ccc(F)cc3)CC2)cc(OC)c1OC		inconclusive: 10 µM [inhibitor, full curve]
COc1ccc(NC(=O)c2ccc3c(c2)CCN3S(=O)(=O)c2ccccc2)cc1		inconclusive: 39.8 µM [inhibitor, full curve, poor fit]
Cc1ccc(C)c(S(=O)(=O)c2nnn3c2nc(N2CCCCC2)c2sccc23)c1		inconclusive: 11.2 µM [inhibitor, full curve, poor fit]
CCc1c(C)c(C#N)c2nc3ccccc3n2c1Nc1cccc(C(F)(F)F)c1		inconclusive: 70.8 µM [inhibitor, single point]
CC(C)c1ccc(NC(=O)Cn2c(=O)oc3cc(S(=O)(=O)N4CCCC4)ccc32)cc1		inconclusive: 2.51 µM [inhibitor, full curve]
O=S(CCc1ccncc1)Cc1ccc2c3c(cccc13)CC2 (stereo not given)	inactive: 41.7%	
CC(NC(=O)C(C)(C)C)c1ccc2c(c1)CCCC2 (stereo not given)	inactive: -12.6%	
Cc1cc(C)c2c(-n3cccc3)c(C(=O)NCC(C)c3ccccc3)sc2n1 (stereo not given)		inconclusive: 31.6 µM [inhibitor, partial curve, poor fit]
O=C(NC1CC(=O)N(c2ccccc2)C1)c1ccc(S(=O)(=O)N2CCCC2)cc1 (stereo not given)		inconclusive: 3.16 µM [inhibitor, full curve, poor fit]
CCN(C(=O)C1CCN(c2nc3ccccc3o2)CC1)c1ccc(F)c(F)c1	inactive: -14%	
Cc1ccc(C(=O)Nc2cc(-c3nc4ccccc4s3)ccc2C)c(C)c1	inactive: 4.43%	
Cc1ccccc1Cc1c(C)nc2nc(SCC(=O)NC(C)c3ccccc3)nn2c1C (stereo not given)		inconclusive: 79.4 µM [inhibitor, partial curve, poor fit]
O=C(NCCCN1CCN(c2ccccc2)CC1)c1cc2c(s1)-c1ccccc1OC2		inconclusive: 10 µM [inhibitor, partial curve, poor fit]
O=C(NCc1ccc(Cl)cc1)C1CCCN(c2ncnc3onc(-c4ccc(F)cc4)c23)C1 (stereo not given)		inconclusive: 39.8 µM [inhibitor, single point]
O=S(=O)(Nc1nc2n(n1)C(c1ccccc1)C=C(c1ccc(Cl)cc1)N2)c1ccccc1 (stereo not given)		inconclusive: 11.2 µM [inhibitor, full curve, poor fit]

Reference: PubChem BioAssay AID1347428 (National Center for Advancing Translational Sciences (NCATS), 2020)
